The supplement of paper PMC8674133
Recombinant human monoclonal antibodies (heavy:light variable regions). ELISA EC50 on the named antigen, from 10 µg/ml down; IC50 / IC90 against spike pseudovirus on 293T-ACE2 cells, 48 h; lower = stronger. Calls: IC50 above 1,000 ng/ml = non-neutralizing; EC50 above 2,000 ng/ml = non-binder. The source prints 1000 for neutralization that was not reached; it is given as >1000 ng/ml. A few antibodies were first reported in earlier work of the same group.

B1: C1432 (protein)
chain 1: QVQLQESGPGLVKPSQTLSLSCNVSGDSISSSGYQWNWIRQHPGKGLEWIAYIYYSGSAYYNPSLKSRVTMSVDTSKNRFSLKLSSVTAADTAVYYCARRGVDSILIGASVIDYYYYGMDVWGQGTTVTVSS
chain 2: QSALTQPASVSGSPGQSITISCTGTSSDVGGYTYVSWYQQHPGKAPKVIIYDVSNRPSGVSNRFSGSKSGNTASLTISGLQAEDEADYYCSSYTSSSTYVFGTGTKVTVL
B2: C1255 (protein)
chain 1: QVQLVQSGAEVKKPGASVKVSCKASGYTFTNYYMHWVRQAPGQGLEWMGIINPSGGSTTYAQKVQGRVTLTRDTSTSTVYMELNSLRSEDTAVYYCARDENFIPARGAMDVWGQGTTVTVSS
chain 2: not shown
B3: C1258 (protein)
chain 1: QVQLVQSGAEVKKPGASVKVSCKASTYTFSNYYIHWVRQAPGQGLEWMGVINPSAGSIAYAQKFQGRVTMTSDTSTSTVYMELSSLRSEDTALYFCARDFALIPASMGLEYWGQGTLVTVSS
chain 2: IQMTQSPSSLSASVGDRVTITCRASQGIRNDLGWYQQKPGKAPKLLIYAASSLQSGVPSRFSGSGSGTDFTLTISSLQPEDFATYYCLQDYNYPWTFGQGTKVEIK
B4: C1430 (protein)
chain 1: QVQLVESGGGVVQPGRSLRLSCAASGFTFSNYGMHWVRQAPGKGLEWVALIWYDGSYKYYADSVKGRFTISRDNSQNTLYLQLNSLRDEDTAVYYCAREGDCSGGNCWKGIWYFDLWGRGTLVTVSS
chain 2: QSALTQPRSVSGSPGQSVTISCTGTSSDVGGYNFVSWYQQHPGKAPKLMIYDVIKRPSGVPDRFSGSKSGNTASLTISGLQADDEADYYCCSYAGSYTYVFGTGTKVTVL
B5: C1434 (protein)
chain 1: QVQLVESGGSVVQPGRSLRLSCAASGFTFRHYVMHWVRQAPGKGLEWVAVILYDGSDKYYADSVKGRFTISRDNSKNTLYLQMNSLRAEDTAVYYCAKGAEPYCSAGNCYSNYFDYWGQGTLVTVSS
chain 2: IQLTQSPSSLSASVGDRVTITCRASQAISSALAWYQQKSGKPPKLLIYHASSLQSGVPSRFSGSGSGTDFTLTISSLQAEDFATYYCQQFNSYSTFGPGTKVDIK
B6: C1427 (protein)
chain 1: QVQLQESGPGLVKPSETLSLTCTVSGGSINSYLWSWIRQPPGMGLAWIGYISYTGSTNYSPSLKSRVSISIDTSKNQFSLKLNSVTAADTAVYYCARHRLGLILGSDYWGQGKLVTVSS
chain 2: NFMLTQPHSVSESPGKTVTISCTGSSGSIASNYVQWYQQRPGSAPTTVIYEDNQRPSGVPDRFSGSIDSSSNSASLTISGLKTEDEADYYCQSYDSGTWVFGGGTKLTVL
B7: C1431 (protein)
chain 1: QVQLQESGPGLVKPSQTLSLICTVSGGSISSGDYSWSWIRQHPGKGLDWIGYISYSGSTYYKPSLKSRVNISLDTSKNQFSLRLRSVTAADTAVYYCARLKRYLEWSKETYEYYFDYWGQGTLVTVSS
chain 2: SYELTQPPSVSVSPGQTASITCSGNKLGEKYVCWYHQKPGQSPVLVMYQDDRRPSGIPERFSGSNSGNTATLTISGAQAMDEADYYCQAWDSTTAVFGGGTTLTVL
B8: C1425 (protein)
chain 1: EVQLVESGGGLVQPGGSLRLSCAASGITVSSNYMNWVRQAPGKGLEWISVIYSGGSTFYADSVKGRFTISRHNSKNTLYLQMNSLRAEDTAVYYCARFGSYGRRLYDSWGQGTLVTVSS
chain 2: DIQMTQSPSSLSASVGDRVTITCQASQDISNYLNWYQQKPGKAPKLLIFDASNLETGVPSRFSGSGSGTDFTFTISSLQPEDIATYYCQQYDNLPVTFGGGTKVEIK
B9: C1249 (protein)
chain 1: EVQLVESGGGLVQPGGSLRLSCAASEIIVSSNYMIWVRQAPGKGLEWVSVIYSGGSTFYADSVKGRFTISRHNSKNTLFLQMNSLRPEDSAVYYCARALPFFGDLGYFDFWGRGTLVTVSS
chain 2: DIQMTQSPSSLSASVGDRVTITCRASQSIINYLNWYQQKPGEAPKLLIYAASSLHSGVPSRFSGSGSGTDFTLTISSLQPADFATYFCQQTYSTPGTTFGQGTKLEIK
B10: C2478 (protein)
chain 1: EVQLVESGGGLVQPGRSLRLSCSVSGFTFDEYAMHWVRQAPGKGLEWVSGISWNGGTIGYADSVKGRFTISRDNAKNSLYLQMNSLRAADTALYYCAKDIYPLDYGDAFFFDSWGQGTLVTVSS
chain 2: EIVLTQSPGTLSLSPGERVTLSCRASQRVSSSYLAWYQQKPGQAPRLLIYGASSRAIGIPDRFSGGGSGTDFTLTISRLEPEDFAVYYCQCYGSTPPITFGPGTKVDIK
B11: C1260 (protein)
chain 1: QVQLQESGPGLVKPSGTLSLTCAVSGGSITSVHWWSWVRQSPGKGLEWIGEIYHSGNSNYNPSLKSRVTISVDKSKNQFSLKLNSVTAADTAVYYCARDREDGMGLWYFDLWGRGTLVTVSS
chain 2: QSVLTQPPSASGTPGQRVTISCSGSSSNIGSEYVYWYQQLPGTAPKLLIYRNNQRPSGVPDRFSGSKSGTSASLAISGLRSEDEADYYCAAWDDSLSGRVFGGGTKLTVL
B12: C1429 (protein)
chain 1: EVQLVESGGGLVQPGGSLRLSCTASGFTLSSYSMHWVRQAPGKGLEWISFISSSATTIYYADSVKGRFTISKDNDNDSLYLRMNSLRDEDTAVYYCARERRPYYDFWSGPDSGFDPWGQGTLVTVSS
chain 2: QSVLTQPPSASGTPGQRVTISCSGSSSNIGSNTVNWYQQLPGTAPKLLIYSNNQRPSGVPDRFSGSKSGTSASLAISGLQSEDEADYYCSAWDASLNGWLFGGGTKLTVL
B13: C1262 (protein)
chain 1: QVQLVESGGGVVQPGRSLRLSCAASGFTPTSYAMHWVRQAPGKGLEHLAFISYDGSNKYYADSVKGRFTISRDNSKNTLYLQMSSLRAEDTALYYCAITFPRGELTGILHYWGQGTLVTVSS
chain 2: SYELTQPPSVSVAPGQTARITCGGDNIGSKNVHWYQQKPGQAPVLVVYDDNDRPSGIPERFSGSNSGNTATLTISRVEAGDEADYYCQVWDSNSDHFWVFGGGTKLTVL
B14: C1257 (protein)
chain 1: QVQLVQSGAEVKKPGASVKVSCKASGYTFTTYYIHWVRQAPGQGLEWMGLINPDAASTTYAQKFQGRVTMTTDTSTSTVYMELSSLRSEDTAVYFCARDEVLIPAARALDYWGQGSLVTVSS
chain 2: EIVLTQSPATLSLSPGERATLSCRASQSVSSYLAWYQQKPGQAPRLLIYDASNRATGIPGRFSGSGSGTEFTLTISSLEPEDFAVYYCQQRSNWPRIFTFGPGTKVDIK
B15: C2479 (protein)
chain 1: VQLVESGGGVVQPGRSLRLSCAASGFTFSSYGMHWVRQAPGKGLEWVAVISDDGSFKYYADSVKGRFTISRDNSKKTLDLQMTRLRAEDTAVYYCARDWGSTVTLFDSWGQGSLVTVSS
chain 2: DIQLTQSPSSLSASVGDRVNITCRASQSIITYLNWYQQKPGKAPKLLIYGASSLQSGVPSRFSGSGSGTDFTLTISSLQPADFATYYCQQSYNTPPWTFGQGTKVEIK
B16: C1248 (protein)
chain 1: QVQLQESGPGLVKPSETLSLTCTVSGGSFSSYFWNWIRQPPGKGLEWIGHIYYSGTTNYNPSLKSRVTISVDTSKTHFSLRLSSVTAADTAVYYCARQGWLRGNFDLWGRGTLVTVSS
chain 2: NFMLTQPHSVSESPGKTVTISCTGSSGSIASNYVQWYQQRPGSAPTTVIYEDTQRPSGVPDRFSGSIDSSSNSASLTISGLKTEDEADYYCQSYDTTFSVVFGGGTKLTVL
B17: C1433 (protein)
chain 1: QVQLVQSGAEVKKPGASVKVSCKSSGYSFTTYGISWVRQAPGQGLEWMGWISTYNGNTNYAQKVQGRVTMTRDTSTSTATMELRSLRSDDTAVYYCARDRLAAAIDYFDYWGQGTLVTVSS
chain 2: SYELTQPPSVSVAPGQTARITCGGNDIGSKSVHWYQQKPGQAPVLVVYDDTYRPSGIPERFTGSNSGNTATLTISRVAAGDEADYYCQVWDGTSDHPGVVFGGGTKLTVL

Experiments:
[1] = target: SARS-CoV-2 Wuhan-Hu-1 spike pseudovirus; test: pseudovirus neutralization IC50; higher = weaker neutralization
Procedure: (§1)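 Single-round luciferase reporter pseudovirus mixed with antibody dilutions and put on 293T-ACE2 cells for 48 h; signal relative to no-antibody wells, four-parameter fit.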

[2] = target: SARS-CoV-2 Wuhan-Hu-1 spike pseudovirus; test: pseudovirus neutralization IC90; higher = weaker neutralization
Procedure: as §1

[3] = target: SARS-CoV-2 Wuhan-Hu-1 spike receptor-binding domain; test: ELISA binding EC50; higher = weaker binding; ELISA of recombinant human antibody on coated antigen, from 10 µg/ml in fourfold dilutions; four-parameter fit.

Binder	pseudovirus neutralization IC50 [1] [µg/mL]	pseudovirus neutralization IC90 [2] [µg/mL]	ELISA binding EC50 [3] [µg/mL]
B1	> 1	> 1	0.00392
B2	> 1	> 1	0.0757
B3	> 1	> 1	0.00328
B4	0.015	0.103	0.00405
B5	> 1	> 1	0.00244
B6	0.0849	0.535	0.00561
B7	> 1	> 1	0.00236
B8	0.00659	0.0295	0.002
B9	0.00797	0.0226	0.00258
B10	> 1	> 1	0.00395
B11	0.0246	0.14	0.00269
B12	> 1	> 1	0.0038
B13	0.362	> 1	0.00246
B14	> 1	> 1	0.00303
B15	0.477	> 1	0.00192
B16	0.0854	0.542	0.0037
B17	0.122	> 1	0.00263
